Patent US20260306644A1, “ANTIBODY RECRUITING MOLECULES FOR THE TREATMENT OF CORONAVIRUS DISEASE-19” (priority 2023, published 2026)
Positions of bridges follow the written chain, without caps; N, C: chain ends. Non-standard residues stand in square brackets, D forms with d. Residues, ends and D or L forms follow the SMILES beside them. No end group written: not given here. PEG8 = NCCOCCOCCOCCOCCOCCOCCOCCOCCC(=O)O; Tic = O=C(O)[C@@H]1Cc2ccccc2CN1; Aib = CC(C)(N)C(=O)O

biological target: SARS-CoV-2 Spike glycoprotein Receptor Binding Domain (RBD) (Severe acute respiratory syndrome coronavirus 2, UniProt P0DTC2); assay: Ligand binding to SARS-CoV-2 Spike glycoprotein Receptor Binding Domain (RBD) by BLI; conditions: biotinylated Spike RBD, 1:1 global fit

Row | Compound | Octet SARS-CoV-2 Spike RBD Protein Binding KD
1 | CC[C@H](C)[C@H](NC(=O)[C@H](CCCCN)NC(=O)[C@H](CCC(N)=O)NC(C)=O)C(=O)N[C@@H](Cc1ccc(O)cc1)C(=O)N[C@@H](CCC(=O)O)C(=O)N[C@H](C(=O)N[C@H]1CSSC[C@@H](C(=O)N[C@@H](CO)C(=O)N[C@@H](CC(=O)O)C(=O)N[C@@H](CC(C)C)C(=O)N[C@H](C(=O)N[C@@H](Cc2ccc(O)cc2)C(=O)N[C@@H](CCC(=O)O)C(=O)N[C@@H](Cc2ccccc2)C(=O)N[C@@H](CCSC)C(=O)N[C@@H](CCCCN)C(=O)N[C@@H](CCCCN)C(=O)NCC(=O)O)[C@@H](C)CC)NC(=O)[C@H](CCCNC(=N)N)NC(=O)[C@H](CCSC)NC(=O)[C@H](CO)NC(=O)[C@H](C)NC(=O)[C@H](CCC(=O)O)NC(=O)[C@H](C)NC(=O)[C@H](Cc2cnc[nH]2)NC(=O)CNC(=O)[C@H](CC(C)C)NC(=O)[C@H](CCC(=O)O)NC(=O)[C@H](CC(=O)O)NC(=O)[C@H](CC(C)C)NC(=O)[C@H](CC(C)C)NC(=O)[C@H](CCCNC(=N)N)NC1=O)[C@@H](C)CC [Compound 132] (Ac-QKIYEICRLLDELGHAEASMRCSDLIYEFMKKG-OH; disulfide 7-22) | Weak Binding
2 | Ac-EIMRLLDELGHAEASMRVSDLIYEFMKKGDERLLEEAERLLEEVER [Compound 235] | No Binding
3 | Ac-AEASMRVSDLIYEFMKKGDERLLEEAERLLEEVER [Compound 234] | No Binding
4 | {CH2CO}-ASYHLGELVW[Tic][Aib]C[dE]ILQKIYEIMRLLDELGHAEASMRVSDLIYEFMKK (thioether N-13) [Compound 131] | Weak Binding
5 | CC[C@H](C)[C@H](NC(=O)[C@H](Cc1c[nH]c2ccccc12)NC(=O)[C@H](CCC(=O)O)NC(=O)[C@H](CCCCN)NC(=O)[C@H](CC(=O)O)NC(C)=O)C(=O)N[C@@H](CC(C)C)C(=O)N[C@@H](CCC(N)=O)C(=O)N[C@@H](CCCCN)C(=O)N[C@H](C(=O)N[C@@H](Cc1ccc(O)cc1)C(=O)N[C@@H](CCC(=O)O)C(=O)N[C@H](C(=O)N[C@@H](CCSC)C(=O)N[C@@H](CCCNC(=N)N)C(=O)N[C@@H](CC(C)C)C(=O)N[C@@H](CC(C)C)C(=O)N[C@@H](CC(=O)O)C(=O)N[C@@H](CCC(=O)O)C(=O)N[C@@H](CC(C)C)C(=O)NCC(=O)NCCOCCOCCOCCOCCOCCOCCOCCOCCC(=O)O)[C@@H](C)CC)[C@@H](C)CC [Compound 228] (Ac-DKEWILQKIYEIMRLLDELG[PEG8]-OH) | No Binding
6 | AEASMRVSDLIYEFMKKGDERLLEEAERLLEEVER [Compound 210] | No Binding
7 | CC[C@H](C)[C@H](NC(=O)[C@H](Cc1c[nH]c2ccccc12)NC(=O)[C@H](CCC(=O)O)NC(=O)[C@H](CCCCN)NC(=O)[C@H](CC(=O)O)NC(C)=O)C(=O)N[C@@H](CC(C)C)C(=O)N[C@@H](CCC(N)=O)C(=O)N[C@@H](CCCCN)C(=O)N[C@H](C(=O)N[C@@H](Cc1ccc(O)cc1)C(=O)N[C@@H](CCC(=O)O)C(=O)N[C@H](C(=O)N[C@@H](CCSC)C(=O)N[C@@H](CCCNC(=N)N)C(=O)N[C@@H](CC(C)C)C(=O)N[C@@H](CC(C)C)C(=O)N[C@@H](CC(=O)O)C(=O)N[C@@H](CCC(=O)O)C(=O)N[C@@H](CC(C)C)C(=O)NCC(=O)N[C@@H](Cc1c[nH]cn1)C(=O)N[C@@H](C)C(=O)N[C@@H](CCC(=O)O)C(=O)N[C@@H](C)C(=O)N[C@@H](CO)C(=O)N[C@@H](CCSC)C(=O)N[C@@H](CCCNC(=N)N)C(=O)N[C@H](C(=O)N[C@@H](CO)C(=O)NCCOCCOCCOCCOCCOCCOCCOCCOCCC(=O)NCCOCCOCCOCCOCCOCCOCCOCCOCCC(=O)N[C@@H](CC(=O)O)C(=O)N[C@H]1CSSC[C@@H](C(=O)N[C@H](C(N)=O)[C@@H](C)O)NC(=O)[C@H](Cc2c[nH]c3ccccc23)NC(=O)[C@H](C(C)C)NC(=O)[C@H](CC(C)C)NC(=O)[C@H](CCC(=O)O)NC(=O)CNC(=O)[C@H](CC(C)C)NC(=O)[C@H](Cc2c[nH]cn2)NC(=O)[C@H](Cc2c[nH]c3ccccc23)NC(=O)[C@H](C)NC1=O)C(C)C)[C@@H](C)CC)[C@@H](C)CC [Compound 153] | Weak Binding
8 | EIMRLLDELGHAEASMRVSDLIYEFMKKGDERLLEEAERLLEEVER [Compound 212] | No Binding

same assay, conditions: biotinylated Spike RBD, unit pM printed in cell, read-out: Octet SARS-CoV-2 Spike RBD Protein Binding KD (cell printed in pM)

Row | Compound | Kd
9 | CC[C@H](C)[C@H](NC(=O)[C@H](CC(C)C)NC(=O)[C@H](CC(=O)O)NC(=O)[C@H](CO)NC(=O)[C@@H](NC(=O)[C@H](CCCNC(=N)N)NC(=O)[C@H](CCSC)NC(=O)[C@H](CO)NC(=O)[C@H](C)NC(=O)[C@H](CCC(=O)O)NC(=O)[C@H](C)NC(=O)[C@H](Cc1c[nH]cn1)NC(=O)CNC(=O)[C@H](CC(C)C)NC(=O)[C@H](CCC(=O)O)NC(=O)[C@H](CC(=O)O)NC(=O)[C@H](CC(C)C)NC(=O)[C@H](CC(C)C)NC(=O)[C@H](CCCNC(=N)N)NC(=O)[C@H](CCSC)NC(=O)[C@@H](NC(=O)[C@H](CCC(=O)O)NC(=O)[C@H](Cc1ccc(O)cc1)NC(=O)[C@@H](NC(=O)[C@H](CCCCN)NC(=O)[C@H](CCC(N)=O)NC(=O)[C@H](CC(C)C)NC(=O)[C@@H](NC(=O)[C@H](Cc1c[nH]c2ccccc12)NC(=O)[C@H](CCC(=O)O)NC(=O)[C@H](CCCCN)NC(=O)[C@H](CC(=O)O)NC(C)=O)[C@@H](C)CC)[C@@H](C)CC)[C@@H](C)CC)C(C)C)C(=O)N[C@@H](Cc1ccc(O)cc1)C(=O)N[C@@H](CCC(=O)O)C(=O)N[C@@H](Cc1ccccc1)C(=O)N[C@@H](CCSC)C(=O)N[C@@H](CCCCN)C(=O)N[C@@H](CCCCN)C(=O)NCC(=O)N[C@@H](CCC(N)=O)C(=O)N[C@@H](C)C(=O)N1CCC[C@H]1C(=O)N[C@@H](CC(=O)O)C(=O)N[C@H]1CSSC[C@@H](C(=O)N[C@H](C(=O)O)[C@@H](C)O)NC(=O)[C@H](Cc2c[nH]c3ccccc23)NC(=O)[C@H](C(C)C)NC(=O)[C@H](CC(C)C)NC(=O)[C@H](CCC(=O)O)NC(=O)CNC(=O)[C@H](CC(C)C)NC(=O)[C@H](Cc2c[nH]cn2)NC(=O)[C@H](Cc2c[nH]c3ccccc23)NC(=O)[C@H](C)NC1=O [Compound 109] | < 1 pM
10 | CC[C@H](C)[C@H](NC(=O)[C@H](CC(C)C)NC(=O)[C@H](CC(=O)O)NC(=O)[C@H](CO)NC(=O)[C@@H](NC(=O)[C@H](CCCNC(=N)N)NC(=O)[C@H](CCSC)NC(=O)[C@H](CO)NC(=O)[C@H](C)NC(=O)[C@H](CCC(=O)O)NC(=O)[C@H](C)NC(=O)[C@H](Cc1c[nH]cn1)NC(=O)CNC(=O)[C@H](CC(C)C)NC(=O)[C@H](CCC(=O)O)NC(=O)[C@H](CC(=O)O)NC(=O)[C@H](CC(C)C)NC(=O)[C@H](CC(C)C)NC(=O)[C@H](CCCNC(=N)N)NC(=O)[C@H](CCSC)NC(=O)[C@@H](NC(=O)[C@H](CCC(=O)O)NC(=O)[C@H](Cc1ccc(O)cc1)NC(=O)[C@@H](NC(=O)[C@H](CCCCN)NC(=O)[C@H](CCC(N)=O)NC(=O)[C@H](CC(C)C)NC(=O)[C@@H](NC(=O)[C@H](Cc1c[nH]c2ccccc12)NC(=O)[C@H](CCC(=O)O)NC(=O)[C@H](CCCCN)NC(=O)[C@H](CC(=O)O)NC(C)=O)[C@@H](C)CC)[C@@H](C)CC)[C@@H](C)CC)C(C)C)C(=O)N[C@@H](Cc1ccc(O)cc1)C(=O)N[C@@H](CCC(=O)O)C(=O)N[C@@H](Cc1ccccc1)C(=O)N[C@@H](CCSC)C(=O)N[C@@H](CCCCN)C(=O)N[C@@H](CCCCN)C(=O)NCC(=O)NCCOCCOCCOCCOCCOCCOCCOCCOCCC(=O)NCCOCCOCCOCCOCCOCCOCCOCCOCCNC(=O)[C@@H]1CSCC(=O)N[C@@H](C)C(=O)N[C@@H](CO)C(=O)N[C@@H](Cc2ccc(O)cc2)C(=O)N[C@@H](Cc2c[nH]cn2)C(=O)N[C@@H](CC(C)C)C(=O)NCC(=O)N[C@@H](CCC(=O)O)C(=O)N[C@@H](CC(C)C)C(=O)N[C@@H](C(C)C)C(=O)N[C@@H](Cc2c[nH]c3ccccc23)C(=O)N2Cc3ccccc3C[C@H]2C(=O)NC(C)(C)C(=O)N1 [Compound 160] | 1.2 pM
11 | CC[C@H](C)[C@H](NC(=O)[C@H](CC(C)C)NC(=O)[C@H](CC(=O)O)NC(=O)[C@H](CO)NC(=O)[C@@H](NC(=O)[C@H](CCCNC(=N)N)NC(=O)[C@H](CCSC)NC(=O)[C@H](CO)NC(=O)[C@H](C)NC(=O)[C@H](CCC(=O)O)NC(=O)[C@H](C)NC(=O)[C@H](Cc1c[nH]cn1)NC(=O)CNC(=O)[C@H](CC(C)C)NC(=O)[C@H](CCC(=O)O)NC(=O)[C@H](CC(=O)O)NC(=O)[C@H](CC(C)C)NC(=O)[C@H](CC(C)C)NC(=O)[C@H](CCCNC(=N)N)NC(=O)[C@H](CCSC)NC(=O)[C@@H](NC(=O)[C@H](CCC(=O)O)NC(=O)[C@H](Cc1ccc(O)cc1)NC(=O)[C@@H](NC(=O)[C@H](CCCCN)NC(=O)[C@H](CCC(N)=O)NC(=O)[C@H](CC(C)C)NC(=O)[C@@H](NC(=O)[C@H](Cc1c[nH]c2ccccc12)NC(=O)[C@H](CCC(=O)O)NC(=O)[C@H](CCCCN)NC(=O)[C@H](CC(=O)O)NC(C)=O)[C@@H](C)CC)[C@@H](C)CC)[C@@H](C)CC)C(C)C)C(=O)N[C@@H](Cc1ccc(O)cc1)C(=O)N[C@@H](CCC(=O)O)C(=O)N[C@@H](Cc1ccccc1)C(=O)N[C@@H](CCSC)C(=O)N[C@@H](CCCCN)C(=O)N[C@@H](CCCCN)C(=O)NCC(=O)NCC(=O)NCC(=O)NCC(=O)N[C@@H](CC(=O)O)C(=O)N[C@H]1CSSC[C@@H](C(=O)N[C@H](C(=O)O)[C@@H](C)O)NC(=O)[C@H](Cc2c[nH]c3ccccc23)NC(=O)[C@H](C(C)C)NC(=O)[C@H](CC(C)C)NC(=O)[C@H](CCC(=O)O)NC(=O)CNC(=O)[C@H](CC(C)C)NC(=O)[C@H](Cc2c[nH]cn2)NC(=O)[C@H](Cc2c[nH]c3ccccc23)NC(=O)[C@H](C)NC1=O [Compound 107] | < 1 pM
12 | SDKEWILQKIYEIMRLLDELGHAPASMRVSDLIYEFMKKG-NH2 [Compound 192] | < 1 pM
